Out of some 370,000 compounds screened, about 500 (0.14%) were called active. Inconclusive means that the source gave no clear call. Such entries were picked first, then a sample of the others. Calls follow the shape of the dose curve; as a rule, active = well fitted activation curve with a large enough effect; inconclusive = small, poorly fitted or top-dose-only effect; inactive = no such curve, though single readings can be large or run the other way. Where the call is inconclusive, the potency comes from a doubtful curve fit.
experiment: qHTS of alpha-syn Inhibitors; conditions: Yeast expressing alpha-synuclein, BacTiter-Glo, 24 h; Potency: growth rescue unless noted; growth rescue (activation): at 46.1 µM (top of the series) unless noted; also: nearly all actives have a fitted effect of over 65% in size; as to growth rescue (activation): % of control where 0% means no effect
In short: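 Rescue of yeast growth: cells expressing toxic alpha-synuclein, induced in galactose at OD600 0.02, incubated with compound 24 h at 30 C. ATP luminescence quantified growth; inhibitors of toxicity appear as activators.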
Potency is read from the fitted curve at half-maximal effect; tags tell the direction and shape of the fitted curve.

Growth rescue (activation), inactive:
Nc1ncnc2c1nc(Sc1ccc(Cl)cc1)n2[C@H]1OC2COP(=O)(O)O[C@@H]2C1O (some centres undefined) 0.687%, CN(CC(=O)Nc1cccc(F)c1)C(=O)CSc1ccccc1 -1.92%, O=C(CNS(=O)(=O)c1ccc(Br)s1)NCc1ccccc1 -14.4%, COc1ccc(NC(=O)CCCCC#Cc2ccccc2)cc1 -16.2%, CCOc1ccccc1Nc1cc(C)c2cccc(C)c2n1 -2.03%, O=C(CSc1ccc(F)cc1)N1CCC(c2nc3ccccc3s2)CC1 27.5%, C=CCNc1ncnc2c1ncn2[C@H]1CN(CCc2ccccc2)C[C@@H](CO)O1 -4.23%, O=C1c2ccsc2SCCN1Cc1c(Cl)cccc1Cl -2.8%, CNc1cncc(-c2cccc(OC)c2F)n1 3.03%, O=C(CNc1cccc(S(=O)(=O)N2CCOCC2)c1)Nc1ccc(C(F)(F)F)cc1 -9.84%, O=C(NC1=NCCS1)c1cc(-c2cccc(Br)c2)nc2ccccc12 -23.8%, CCC(=O)c1ccc(N2CCN(C(=O)c3ccccc3Br)CC2)c(F)c1 19.2%, COCCNC(C(=O)Nc1ccc([N+](=O)[O-])cc1Br)c1ccccc1 (centres undefined) 4.66%, CC(C)(C)C1CCc2nc(NC(=O)Cc3cn4ccsc4n3)sc2C1 (centres undefined) 8.97%, C=C[C@@]1(C)C[C@H](OC(=O)CSC(C)(C)CNC(=O)[C@@H](N)C(C)C)[C@@]2(C)C(C)CC[C@@]3(CCC(=O)[C@@H]32)[C@H](C)[C@H]1O (some centres undefined) 0.0613%, COc1ccc(Nc2ccccc2NC(=O)c2ccccc2Br)cc1 8.15%, COc1ccccc1N1CCN(C(=O)c2cc(-c3ccc(C)cc3)on2)CC1 -13.5%, CCOC(=O)N1CCC(NC(=O)c2cc3c(-c4ccc(OC)c(OC)c4)nn(C)c3s2)CC1 -4.37%

Potency, inconclusive:
Cc1cc(C)n(-c2nc(SCC(=O)O)c3c4c(sc3n2)COC(C)(C)C4)n1 35.5 µM [activator, single point], O=C(NNc1ccccc1F)c1sccc1Cl 17.8 µM [activator, single point], COc1ccc(S(=O)(=O)N2CCN(C(=O)c3cnc(C)cn3)CC2)cc1 3.16 µM [activator, single point], CCc1cc(C(=O)N2CCN(S(=O)(=O)c3cc(C)ccc3C)CC2)sc1C 22.4 µM [activator, single point], COc1ccc(OC)c(NC(=S)NCCSc2ccc(C)cc2)c1 31.6 µM [activator, single point], S=c1nc(-c2ccccc2)n(Cc2cccnc2)c2c1CCCC2 3.98 µM [activator, single point], CC1CN(C(=O)CCC(=O)N2CCN(c3ccccn3)CC2)c2ccccc2O1 (centres undefined) 31.6 µM [activator, single point], COc1ccc(CN2C(=O)c3ccccc3C2=O)cc1C(=O)Nc1ccccc1N1CCOCC1 5.62 µM [activator, single point], CCCN(C(=O)c1cccc(S(=O)(=O)N2CCCc3ccccc32)c1)C1CCS(=O)(=O)C1 (centres undefined) 2.82 µM [activator, single point], O=S(=O)(Nc1cc(F)ccc1F)c1cccc2nsnc12 31.6 µM [activator, single point], O=C1ON=C(c2ccccc2)/C1=C/c1ccc(O)cc1 11.2 µM [activator, partial curve], O=C(c1ccccc1Br)N1CCc2c([nH]c3ccccc23)C1 17.8 µM [activator, partial curve], Cc1ccccc1OCC(=O)N/N=C/c1c(C)nn(-c2ccccc2)c1Cl 5.62 µM [activator, single point], CCc1cc(C(=O)N2CCc3c([nH]c4ccccc34)C2c2ccc(OC)cc2F)no1 (centres undefined) 22.4 µM [activator, single point], O=S1(=O)C=C[C@@H](COCc2ccccc2)N1Cc1ccc(Br)cc1 2.51 µM [activator, partial curve, poor fit], Cc1c(C(=O)N2CCCCC2)c(S(=O)(=O)Nc2cccc(Br)c2)c(C)n1C 5.62 µM [activator, single point], COc1ccc(N2CCC(CNC(=S)Nc3cc(C)ccc3C)C2)cc1 (centres undefined) 35.5 µM [activator, single point], O=C(/C=C/[C@H]1O[C@@H](n2cnc3c(NC(=O)c4ccccc4)ncnc32)[C@H](O)[C@@H]1O)NCc1cccc2ccccc12 28.2 µM [activator, single point], CCN1C(=O)[C@H]2[C@@H](c3ccc(-c4ccc(F)cc4)cc3)N3CCCC[C@@]3(C(=O)OC)[C@H]2C1=O 25.1 µM [activator, single point], Cc1ccc(/C=C2\SC(=S)N(C3CCS(=O)(=O)C3)C2=O)o1 (centres undefined) 5.62 µM [activator, single point], N#C/C(=N\Nc1ccc(Br)cc1)C(=N)N1CCOCC1 31.6 µM [activator, single point], Cc1nc2ccc(NS(=O)(=O)c3ccc(F)c(F)c3F)cc2s1 31.6 µM [activator, single point], COc1ccc2oc(C(=O)CCC(=O)O)c(N)c2c1 5.62 µM [activator, single point], C[C@@H]1CC=C[C@H]2[C@H]1C(=O)N(Cc1ccccc1)[C@H]2c1ccc(-c2ccc(F)cc2)cc1F 5.62 µM [activator, single point], COCCNC(=S)N1CCC2CC1c1c(Cl)cccc12 (centres undefined) 35.5 µM [activator, single point], Clc1ccc(OCc2noc(-c3ccsc3)n2)c(Cl)c1 31.6 µM [activator, single point], COc1ccc(C(=O)C(=O)N2CCN(c3ccccc3F)CC2)cc1 28.2 µM [activator, single point], COC(=O)c1cc(=O)n(-c2ccccc2)c(=Nc2ccccc2)s1 15.8 µM [activator, single point], O=C(Cn1ccc([N+](=O)[O-])n1)NCC1CCCO1 (centres undefined) 3.16 µM [activator, single point], Cn1c2ccccc2c(=O)c2ccc(Cl)cc21 22.4 µM [activator, single point], Cc1ccc(S(=O)(=O)NC(=O)NC(C)c2ccc(F)cc2)cc1 (centres undefined) 35.5 µM [activator, single point], CC1CC(C)CN(C(=O)CNS(=O)(=O)c2ccc(Br)s2)C1 (centres undefined) 3.16 µM [activator, partial curve], Cc1ccc2nc(-c3ccc(C#N)cc3)c(Cc3cccc(Cl)c3)n2c1 22.4 µM [activator, single point], Cc1ccc(-c2nc(N=Nc3ccc(O)cc3)n[nH]2)cc1 15.8 µM [activator, single point], CC(C)(C)OC(=O)N1CCC(c2nnc(SCc3cccc(Cl)c3)o2)CC1 35.5 µM [activator, single point], Cc1cccc(C)c1Nc1nnc(SCC(=O)c2ccc(Br)s2)s1 22.4 µM [activator, single point], Cc1cccc(CNC(=O)Nc2nnc([C@H]3C[C@H](O)[C@@H](CO)O3)s2)c1 5.62 µM [activator, single point], FC(F)(F)c1ccccc1Cc1c(-c2cccc(Br)c2)nc2ccc(Br)cn12 31.6 µM [activator, single point], Cc1ccc(CNC(=O)C2CCC(=O)N(C3CC3)C2)cc1 (centres undefined) 5.62 µM [activator, single point], O=[N+]([O-])c1cc(Cl)c2cccnc2c1O 3.16 µM [activator, single point], COc1cc(/C=C/c2ccc3c(Br)cc(Br)c(O)c3n2)ccc1O 35.5 µM [activator, single point], CCN(CC)c1ccc2cc(C=O)c(=O)oc2c1 31.6 µM [activator, single point], COc1cccc(CN2CCN(C3CCOCC3)CC2CCO)c1 (centres undefined) 35.5 µM [activator, single point], Cc1cc(NC(=O)CCC(=O)N(CC(=O)NCC2CCCO2)c2ccccc2C)no1 (centres undefined) 5.62 µM [activator, single point], Cc1nnc(NC(=O)c2ccc(S(=O)(=O)N3CCCCC3C)cc2)o1 (centres undefined) 28.2 µM [activator, single point], O=C(CN1C(=O)S/C(=C\c2ccc(C(=O)O)cc2)C1=O)Nc1ccccc1 5.62 µM [activator, single point]

Potency, active:
CCCCC(=O)NNC(=S)NC(=O)CCC 25.1 µM, CCOC1=C2CN(S(=O)(=O)c3ccc(C)cc3)[C@H](c3cccc4ccccc34)C[C@H]2[C@H]2C(=O)N(c3ccccc3)C(=O)[C@H]2C1 14.1 µM, CC1(Cc2ccc(F)cc2)C(=O)Nc2c(Cl)ccc(Cl)c21 (centres undefined) 11.2 µM, O=S(=O)(NCc1ccc(F)cc1)c1ccc(Br)cc1Br 20 µM, CCc1nnc(NC(=O)c2ccc(S(=O)(=O)N(CC(C)C)CC(C)C)cc2)o1 22.4 µM
